This is one part of the list.
System: HSkMC (human skeletal muscle cells)
Assay: cytotoxicity call (relative viability < 0.9)
Details: 10 µM

Row | SMILES | cytotoxicity call
1 | C[C@H]1CN([C@@H](C)CO)C(=O)c2cccc(NC(=O)Nc3cccc4ccccc34)c2O[C@H]1CN(C)Cc1ccc2c(c1)OCO2 | inactive
2 | Cn1c(=O)c2c(nc(N3CCCCC3)n2CCN)n(C)c1=O | inactive
3 | CC(C)NC(=O)N(C)C[C@@H]1Oc2c(NS(=O)(=O)c3cccs3)cccc2C(=O)N([C@@H](C)CO)C[C@@H]1C | inactive
4 | C[C@@H]1CN([C@H](C)CO)C(=O)c2cc(NS(=O)(=O)c3cccs3)ccc2O[C@@H](C)CCCCO[C@H]1CN(C)Cc1ccc2c(c1)OCO2 | inactive
5 | C[C@@H]1CN([C@H](C)CO)C(=O)c2cc(NC(=O)Nc3ccc4c(c3)OCO4)ccc2O[C@@H]1CN(C)Cc1ccc(Cl)c(Cl)c1 | inactive
6 | O=C(CN1CCOCC1)N/N=C/c1ccc([N+](=O)[O-])o1 | inactive
7 | C[C@H](CO)N1C[C@H](C)[C@H](CN(C)S(=O)(=O)c2cccs2)Oc2ccc(NS(=O)(=O)c3ccccc3)cc2CC1=O | inactive
8 | Cc1ccc(S(=O)(=O)N2C[C@@H](O)COC[C@H]3O[C@H](CC(=O)NCc4ccc(Cl)c(Cl)c4)CC[C@@H]32)cc1 | inactive
9 | C[C@H]1CN([C@@H](C)CO)S(=O)(=O)c2ccc(C3=CCCC3)cc2O[C@@H]1CN(C)S(=O)(=O)c1cn(C)cn1 | inactive
10 | CNC[C@@H]1OCCCC[C@H](C)Oc2ccc(NC(=O)c3ccncc3)cc2C(=O)N([C@@H](C)CO)C[C@@H]1C | inactive
11 | C[C@H](CO)N1C[C@H](C)[C@@H](CN(C)Cc2ccccc2F)Oc2cc(C#CC3CC3)ccc2S1(=O)=O | inactive
12 | C[C@H]1CN([C@@H](C)CO)C(=O)c2cccc(NC(=O)c3ccc(-c4nccs4)cc3)c2O[C@H]1CN(C)S(C)(=O)=O | inactive
13 | C[C@@H]1CN([C@H](C)CO)C(=O)Cc2cc(NC(=O)NC3CCCCC3)ccc2O[C@@H]1CN(C)Cc1ccc(C(F)(F)F)cc1 | inactive
14 | C[C@@H]1CN([C@@H](C)CO)C(=O)c2cccc(NS(=O)(=O)c3ccc(F)cc3)c2O[C@@H]1CN(C)CC1CC1 | inactive
15 | COCCOC(=O)N1C(=O)[C@@]2(c3ccccc31)[C@H](C(=O)N1CCCCCCC1)[C@H]1C(=O)O[C@H](c3ccccc3)[C@H](c3ccccc3)N1[C@@H]2c1ccccc1OCCO | inactive
16 | Cc1ccc(S(=O)(=O)N(C)C[C@@H]2Oc3ccc(NC(=O)Nc4ccc(C(F)(F)F)cc4)cc3C(=O)N([C@H](C)CO)C[C@H]2C)cc1 | inactive
17 | C[C@@H]1CN([C@@H](C)CO)S(=O)(=O)c2ccc(-c3cccc(C#N)c3)cc2O[C@H]1CN(C)C(=O)c1ccncc1 | inactive
18 | COc1ccc([C@@H](N)c2ccccc2)cc1 | inactive
19 | COc1ccc(S(=O)(=O)N(C)C[C@H]2OCCCC[C@@H](C)Oc3ccc(NC(=O)c4ccccc4)cc3C(=O)N([C@@H](C)CO)C[C@@H]2C)cc1 | inactive
20 | COc1ccc([Si](C)(C)[C@@H]2[C@@H](CC(=O)N3CCC[C@H]3CO)O[C@]3(C(=O)N(Cc4cccc(N5C(=O)c6cccc7cccc5c67)c4)c4ccccc43)[C@H]2C)cc1 | inactive

Row | SMILES | cytotoxicity call
21 | CN1CCN(C2=Nc3cc(Cl)ccc3Nc3ccccc32)CC1 | inactive
22 | O=C(C[C@H]1C=C[C@@H](NS(=O)(=O)c2ccccc2)[C@H](CO)O1)NCc1ccncn1 | inactive
23 | CO[C@@H]1CN(C)C(=O)c2cc(NS(=O)(=O)c3cn(C)cn3)ccc2OC[C@H](C)N(CC2CC2)C[C@@H]1C | inactive
24 | Cc1noc(C)c1S(=O)(=O)N(C)C[C@@H]1Oc2ccc(NC(=O)Cc3cn(C)c4ccccc34)cc2CC(=O)N([C@@H](C)CO)C[C@@H]1C | active
25 | C=CC[C@@H](CC(=O)N[C@H](CO)Cc1ccccc1)C(=O)N[C@H](COC(=O)[C@@H](CC=C)Cc1ccc(F)cc1)Cc1c[nH]c2ccccc12 | inactive
26 | CCN(CC)CCNc1ccc(COc2ccccc2/C=C(C)/C=C/C(=O)NO)c2sc3ccccc3c(=O)c12 | inactive
27 | Cc1noc(C)c1NC(=O)Nc1ccc2c(c1)C(=O)N([C@@H](C)CO)C[C@H](C)[C@@H](CN(C)C(=O)Nc1ccccc1)OCCCC[C@H](C)O2 | inactive
28 | COc1ccc(NC(=O)N(C)C[C@H]2OCc3cnnn3CCCC(=O)N([C@H](C)CO)C[C@H]2C)c(OC)c1 | inactive
29 | C[C@@H]1CN([C@@H](C)CO)C(=O)c2cc(NC(=O)Nc3ccc(C(F)(F)F)cc3)ccc2O[C@@H]1CN(C)Cc1ccncc1 | inactive
30 | COc1ccc(NC(=O)N(C)C[C@H]2OCCCC[C@H](C)Oc3ccc(NC(=O)Cc4ccccc4)cc3C(=O)N([C@@H](C)CO)C[C@H]2C)cc1 | inactive
31 | CN(C)CC#Cc1ccc([C@@H]2[C@@H](CO)N3C(=O)CN(C(=O)c4cccnc4)C[C@@H]23)cc1 | inactive
32 | COc1ccc(NC(=O)N(C)C[C@H]2Oc3ncc(C#CC(C)C)cc3C(=O)N([C@H](C)CO)C[C@H]2C)cc1 | inactive
33 | CCc1nc2ccc(C(=O)Nc3cc(-c4ccccc4)ccc3OC)cn2c1N(CCN(C)C)CC1CC1 | inactive
34 | COc1ccc(S(=O)(=O)N[C@@H]2CC[C@@H](CC(=O)N3CCC(Cc4ccccc4)CC3)O[C@@H]2CO)cc1 | inactive
35 | CC(C)NC(=O)N(C)C[C@@H]1OCCCC[C@@H](C)Oc2ccc(NC(=O)Nc3ccccc3)cc2C(=O)N([C@@H](C)CO)C[C@H]1C | inactive
36 | Cn1cnc(S(=O)(=O)N2CC[C@@H](O)[C@@H]2Cc2cnn(C)c2)c1 | inactive
37 | O=C(O)CC(CC(=O)O)C(=O)O | inactive
38 | C[C@@H]1CCCCO[C@H](CN(C)Cc2ccc(C(F)(F)F)cc2)[C@@H](C)CN([C@@H](C)CO)C(=O)c2cc(NC(=O)c3ccncc3)ccc2O1 | inactive
39 | C[C@@H]1CCCCO[C@H](CN(C)Cc2ccc(C(=O)O)cc2)[C@@H](C)CN([C@@H](C)CO)C(=O)c2cc(NC(=O)Nc3cccc4ccccc34)ccc2O1 | inactive
40 | COc1ccc2c3c([nH]c2c1)[C@H](CO)N(C[C@]13CCN(CC1)C(=O)c1ccccc1F)C(=O)Nc1ccc(cc1)F | inactive

— the antibiotic and cytotoxicity screens of Wong et al. (2023)
